{
  "source": "the supplement of paper PMC8728848",
  "binders": {"B1": {"name": "Als3-41 (Candida albicans) (protein)", "chain": "KTITGVFNSFNSLTWSNAATYNYKGPGTPTWNAVLGWSLDGTSASPGDTFTLNMPCVFKFTTSQTSVDLTAHGVKYATCQFQAGEEFMTFSTLTCTVSNTLTPSIKALGTVTLPLAFNVGGTGSSVDLEDSKCFTAGTNTVTFNDGGKKISINVDFERSNVDPKGYLTDSRVIPSLNKVSTLFVAPQCANGYTSGTMGFANTYGDVQIDCSNIHVGITKGLNDWNYPVSSESFSYTKTCSSNGIFITYKNVPAGYRPFVDAYISATDVNSYTLSYANEYTCAGGYWQRAPFTLRWTGYRNSDAGSNGIVIVATTRTVTDSTTAVTTLPFDPNRDKTKTIEILKPIPTTTITTSYVGVTTSYLTKTAPIGETATVIVD"}},
  "assay_in_all_cases": "glycan array binding signal (z-score within array); higher = stronger binding",
  "conditions_in_all_cases": "glycan notation: IUPAC condensed, linker removed",
  "key": {"[1]": {"biological_target": "Neu5Ac(a2-3)Gal(b1-4)GlcNAc(b1-3)Gal(b1-4)GlcNAc(b1-2)Man(a1-3)[Neu5Ac(a2-3)Gal(b1-4)GlcNAc(b1-3)Gal(b1-4)GlcNAc(b1-2)Man(a1-6)]Man(b1-4)GlcNAc(b1-4)GlcNAc", "method_in_brief": "(§1)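 Columns mapping to the same glycan were averaged after glycan names were converted to IUPAC-condensed notation. The data come from 3228 arrays in the Consortium for Functional Glycomics database, limited to those with an available protein sequence. Binding is reported as a within-array Z-score averaged across arrays of one protein sequence and across linkers.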"}, "[2]": {"biological_target": "Neu5Ac(a2-3)Gal(b1-4)GlcNAc(b1-3)Gal(b1-4)GlcNAc(b1-3)Gal(b1-4)GlcNAc", "method_in_brief": "as §1"}, "[3]": {"biological_target": "Neu5Ac(a2-3)Gal(b1-4)GlcNAc(b1-3)Gal(b1-4)GlcNAc(b1-3)Gal(b1-4)GlcNAc(b1-2)Man(a1-3)[Neu5Ac(a2-3)Gal(b1-4)GlcNAc(b1-3)Gal(b1-4)GlcNAc(b1-3)Gal(b1-4)GlcNAc(b1-2)Man(a1-6)]GalNAc", "method_in_brief": "as §1"}, "[4]": {"biological_target": "Neu5Ac(a2-3)Gal(b1-4)GlcNAc(b1-3)Gal(b1-4)GlcNAc(b1-3)GalNAc", "method_in_brief": "as §1"}, "[5]": {"biological_target": "Neu5Ac(a2-3)Gal(b1-4)GlcNAc(b1-3)Gal(b1-4)GlcNAc(b1-3)[Neu5Ac(a2-3)Gal(b1-4)GlcNAc(b1-3)Gal(b1-4)GlcNAc(b1-6)]GalNAc", "method_in_brief": "as §1"}, "[6]": {"biological_target": "Neu5Ac(a2-3)Gal(b1-4)GlcNAc(b1-3)Gal(b1-4)GlcNAc(b1-6)[Gal(b1-3)]GalNAc", "method_in_brief": "as §1"}, "[7]": {"biological_target": "Neu5Ac(a2-3)Gal(b1-4)GlcNAc(b1-3)Gal(b1-4)[Fuc(a1-3)]GlcNAc", "method_in_brief": "as §1"}, "[8]": {"biological_target": "Neu5Ac(a2-3)Gal(b1-4)GlcNAc(b1-3)GalNAc", "method_in_brief": "as §1"}, "[9]": {"biological_target": "Neu5Ac(a2-3)Gal(b1-4)GlcNAc(b1-3)[Neu5Ac(a2-3)Gal(b1-4)GlcNAc(b1-6)]GalNAc", "method_in_brief": "as §1"}, "[10]": {"biological_target": "Neu5Ac(a2-3)Gal(b1-4)GlcNAc(b1-6)GalNAc", "method_in_brief": "as §1"}, "[11]": {"biological_target": "Neu5Ac(a2-3)Gal(b1-4)GlcNAc(b1-6)[Gal(b1-3)]GalNAc", "method_in_brief": "as §1"}, "[12]": {"biological_target": "Neu5Ac(a2-3)Gal(b1-4)GlcNAc(b1-6)[Neu5Ac(a2-3)Gal(b1-3)]GalNAc", "method_in_brief": "as §1"}, "[13]": {"biological_target": "Neu5Ac(a2-3)Gal(b1-4)GlcNAc6S", "method_in_brief": "as §1"}, "[14]": {"biological_target": "Neu5Ac(a2-3)Gal(b1-4)[Fuc(a1-3)]GlcNAc", "method_in_brief": "as §1"}, "[15]": {"biological_target": "Neu5Ac(a2-3)Gal(b1-4)[Fuc(a1-3)]GlcNAc(b1-2)Man", "method_in_brief": "as §1"}, "[16]": {"biological_target": "Neu5Ac(a2-3)Gal(b1-4)[Fuc(a1-3)]GlcNAc(b1-3)Gal", "method_in_brief": "as §1"}, "[17]": {"biological_target": "Neu5Ac(a2-3)Gal(b1-4)[Fuc(a1-3)]GlcNAc(b1-3)Gal(b1-4)GlcNAc", "method_in_brief": "as §1"}, "[18]": {"biological_target": "Neu5Ac(a2-3)Gal(b1-4)[Fuc(a1-3)]GlcNAc(b1-3)Gal(b1-4)[Fuc(a1-3)]GlcNAc(b1-3)Gal(b1-4)[Fuc(a1-3)]GlcNAc", "method_in_brief": "as §1"}, "[19]": {"biological_target": "Neu5Ac(a2-3)Gal(b1-4)[Fuc(a1-3)]GlcNAc(b1-3)GalNAc", "method_in_brief": "as §1"}, "[20]": {"biological_target": "Neu5Ac(a2-3)Gal(b1-4)[Fuc(a1-3)]GlcNAc(b1-6)[Gal(b1-3)]GalNAc", "method_in_brief": "as §1"}, "[21]": {"biological_target": "Neu5Ac(a2-3)Gal(b1-4)[Fuc(a1-3)]GlcNAc(b1-6)[Neu5Ac(a2-3)Gal(b1-3)]GalNAc", "method_in_brief": "as §1"}, "[22]": {"biological_target": "Neu5Ac(a2-3)Gal(b1-4)[Fuc(a1-3)]GlcNAc6S", "method_in_brief": "as §1"}, "[23]": {"biological_target": "Neu5Ac(a2-3)Gal6S(b1-4)GlcNAc", "method_in_brief": "as §1"}, "[24]": {"biological_target": "Neu5Ac(a2-3)Gal6S(b1-4)[Fuc(a1-3)]GlcNAc", "method_in_brief": "as §1"}, "[25]": {"biological_target": "Neu5Ac(a2-3)GalNAc", "method_in_brief": "as §1"}, "[26]": {"biological_target": "Neu5Ac(a2-3)GalNAc(b1-4)GlcNAc", "method_in_brief": "as §1"}, "[27]": {"biological_target": "Neu5Ac(a2-3)[GalNAc(b1-4)]Gal(b1-4)Glc", "method_in_brief": "as §1"}, "[28]": {"biological_target": "Neu5Ac(a2-3)[GalNAc(b1-4)]Gal(b1-4)GlcNAc", "method_in_brief": "as §1"}, "[29]": {"biological_target": "Neu5Ac(a2-3)[GalNAc(b1-4)]Gal(b1-4)GlcNAc(b1-3)GalNAc", "method_in_brief": "as §1"}, "[30]": {"biological_target": "Neu5Ac(a2-3)[Neu5Ac(a2-6)]GalNAc", "method_in_brief": "as §1"}, "[31]": {"biological_target": "Neu5Ac(a2-6)Gal", "method_in_brief": "as §1"}, "[32]": {"biological_target": "Neu5Ac(a2-6)Gal(b1-3)GlcNAc(b1-3)[Gal(b1-4)GlcNAc(b1-6)]Gal(b1-4)Glc", "method_in_brief": "as §1"}, "[33]": {"biological_target": "Neu5Ac(a2-6)Gal(b1-4)Glc", "method_in_brief": "as §1"}, "[34]": {"biological_target": "Neu5Ac(a2-6)Gal(b1-4)GlcNAc", "method_in_brief": "as §1"}, "[35]": {"biological_target": "Neu5Ac(a2-6)Gal(b1-4)GlcNAc(b1-2)Man", "method_in_brief": "as §1"}, "[36]": {"biological_target": "Neu5Ac(a2-6)Gal(b1-4)GlcNAc(b1-2)Man(a1-3)Man(b1-4)GlcNAc(b1-4)GlcNAc", "method_in_brief": "as §1"}, "[37]": {"biological_target": "Neu5Ac(a2-6)Gal(b1-4)GlcNAc(b1-2)Man(a1-3)[Gal(b1-4)GlcNAc(b1-2)Man(a1-6)]Man(b1-4)GlcNAc(b1-4)GlcNAc", "method_in_brief": "as §1"}, "[38]": {"biological_target": "Neu5Ac(a2-6)Gal(b1-4)GlcNAc(b1-2)Man(a1-3)[GlcNAc(b1-2)Man(a1-6)]Man(b1-4)GlcNAc(b1-4)GlcNAc", "method_in_brief": "as §1"}},
  "note": "The list shows a part of the results.",
  "data": [
    {"binder": "B1", "values": [
      {"measurement": "glycan array binding signal (z-score)", "setting": "[1]", "result": 0.564},
      {"measurement": "glycan array binding signal (z-score)", "setting": "[2]", "result": -0.239},
      {"measurement": "glycan array binding signal (z-score)", "setting": "[3]", "result": 6.54},
      {"measurement": "glycan array binding signal (z-score)", "setting": "[4]", "result": -0.004},
      {"measurement": "glycan array binding signal (z-score)", "setting": "[5]", "result": -0.053},
      {"measurement": "glycan array binding signal (z-score)", "setting": "[6]", "result": -0.002},
      {"measurement": "glycan array binding signal (z-score)", "setting": "[7]", "result": -0.359},
      {"measurement": "glycan array binding signal (z-score)", "setting": "[8]", "result": 0.154},
      {"measurement": "glycan array binding signal (z-score)", "setting": "[9]", "result": 0.327},
      {"measurement": "glycan array binding signal (z-score)", "setting": "[10]", "result": -0.184},
      {"measurement": "glycan array binding signal (z-score)", "setting": "[11]", "result": -0.346},
      {"measurement": "glycan array binding signal (z-score)", "setting": "[12]", "result": -0.35},
      {"measurement": "glycan array binding signal (z-score)", "setting": "[13]", "result": -0.33},
      {"measurement": "glycan array binding signal (z-score)", "setting": "[14]", "result": -0.27},
      {"measurement": "glycan array binding signal (z-score)", "setting": "[15]", "result": -0.28},
      {"measurement": "glycan array binding signal (z-score)", "setting": "[16]", "result": -0.324},
      {"measurement": "glycan array binding signal (z-score)", "setting": "[17]", "result": 0.101},
      {"measurement": "glycan array binding signal (z-score)", "setting": "[18]", "result": -0.286},
      {"measurement": "glycan array binding signal (z-score)", "setting": "[19]", "result": 0.574},
      {"measurement": "glycan array binding signal (z-score)", "setting": "[20]", "result": 0.897},
      {"measurement": "glycan array binding signal (z-score)", "setting": "[21]", "result": 0.022},
      {"measurement": "glycan array binding signal (z-score)", "setting": "[22]", "result": -0.33},
      {"measurement": "glycan array binding signal (z-score)", "setting": "[23]", "result": -0.205},
      {"measurement": "glycan array binding signal (z-score)", "setting": "[24]", "result": -0.331},
      {"measurement": "glycan array binding signal (z-score)", "setting": "[25]", "result": -0.215},
      {"measurement": "glycan array binding signal (z-score)", "setting": "[26]", "result": -0.224},
      {"measurement": "glycan array binding signal (z-score)", "setting": "[27]", "result": -0.266},
      {"measurement": "glycan array binding signal (z-score)", "setting": "[28]", "result": 0.084},
      {"measurement": "glycan array binding signal (z-score)", "setting": "[29]", "result": 0.031},
      {"measurement": "glycan array binding signal (z-score)", "setting": "[30]", "result": -0.318},
      {"measurement": "glycan array binding signal (z-score)", "setting": "[31]", "result": -0.309},
      {"measurement": "glycan array binding signal (z-score)", "setting": "[32]", "result": -0.389},
      {"measurement": "glycan array binding signal (z-score)", "setting": "[33]", "result": -0.219},
      {"measurement": "glycan array binding signal (z-score)", "setting": "[34]", "result": -0.184},
      {"measurement": "glycan array binding signal (z-score)", "setting": "[35]", "result": -0.129},
      {"measurement": "glycan array binding signal (z-score)", "setting": "[36]", "result": -0.296},
      {"measurement": "glycan array binding signal (z-score)", "setting": "[37]", "result": -0.201},
      {"measurement": "glycan array binding signal (z-score)", "setting": "[38]", "result": -0.308}
    ]}
  ]
}
